# Results: PubChem BioAssay AID1347165 (National Center for Advancing Translational Sciences (NCATS), 2019)
# About 5,700 (2.6%) of roughly 220,000 compounds were called active. The shares of active, inactive and inconclusive entries below differ from those in the screen. Calls come from the whole dose curve; as a rule, active = well fitted inhibition curve with a large enough effect; inconclusive = small, poorly fitted or top-dose-only effect; inactive = no such curve, though single readings can be large or run the other way. Where the call is inconclusive, the potency comes from a doubtful curve fit.
# Biological target: Lysine-specific demethylase 5B (Homo sapiens) (UniProt Q9UGL1)
# UniProt Q9UGL1, sequence (Q9UGL1 whole entry, looked up): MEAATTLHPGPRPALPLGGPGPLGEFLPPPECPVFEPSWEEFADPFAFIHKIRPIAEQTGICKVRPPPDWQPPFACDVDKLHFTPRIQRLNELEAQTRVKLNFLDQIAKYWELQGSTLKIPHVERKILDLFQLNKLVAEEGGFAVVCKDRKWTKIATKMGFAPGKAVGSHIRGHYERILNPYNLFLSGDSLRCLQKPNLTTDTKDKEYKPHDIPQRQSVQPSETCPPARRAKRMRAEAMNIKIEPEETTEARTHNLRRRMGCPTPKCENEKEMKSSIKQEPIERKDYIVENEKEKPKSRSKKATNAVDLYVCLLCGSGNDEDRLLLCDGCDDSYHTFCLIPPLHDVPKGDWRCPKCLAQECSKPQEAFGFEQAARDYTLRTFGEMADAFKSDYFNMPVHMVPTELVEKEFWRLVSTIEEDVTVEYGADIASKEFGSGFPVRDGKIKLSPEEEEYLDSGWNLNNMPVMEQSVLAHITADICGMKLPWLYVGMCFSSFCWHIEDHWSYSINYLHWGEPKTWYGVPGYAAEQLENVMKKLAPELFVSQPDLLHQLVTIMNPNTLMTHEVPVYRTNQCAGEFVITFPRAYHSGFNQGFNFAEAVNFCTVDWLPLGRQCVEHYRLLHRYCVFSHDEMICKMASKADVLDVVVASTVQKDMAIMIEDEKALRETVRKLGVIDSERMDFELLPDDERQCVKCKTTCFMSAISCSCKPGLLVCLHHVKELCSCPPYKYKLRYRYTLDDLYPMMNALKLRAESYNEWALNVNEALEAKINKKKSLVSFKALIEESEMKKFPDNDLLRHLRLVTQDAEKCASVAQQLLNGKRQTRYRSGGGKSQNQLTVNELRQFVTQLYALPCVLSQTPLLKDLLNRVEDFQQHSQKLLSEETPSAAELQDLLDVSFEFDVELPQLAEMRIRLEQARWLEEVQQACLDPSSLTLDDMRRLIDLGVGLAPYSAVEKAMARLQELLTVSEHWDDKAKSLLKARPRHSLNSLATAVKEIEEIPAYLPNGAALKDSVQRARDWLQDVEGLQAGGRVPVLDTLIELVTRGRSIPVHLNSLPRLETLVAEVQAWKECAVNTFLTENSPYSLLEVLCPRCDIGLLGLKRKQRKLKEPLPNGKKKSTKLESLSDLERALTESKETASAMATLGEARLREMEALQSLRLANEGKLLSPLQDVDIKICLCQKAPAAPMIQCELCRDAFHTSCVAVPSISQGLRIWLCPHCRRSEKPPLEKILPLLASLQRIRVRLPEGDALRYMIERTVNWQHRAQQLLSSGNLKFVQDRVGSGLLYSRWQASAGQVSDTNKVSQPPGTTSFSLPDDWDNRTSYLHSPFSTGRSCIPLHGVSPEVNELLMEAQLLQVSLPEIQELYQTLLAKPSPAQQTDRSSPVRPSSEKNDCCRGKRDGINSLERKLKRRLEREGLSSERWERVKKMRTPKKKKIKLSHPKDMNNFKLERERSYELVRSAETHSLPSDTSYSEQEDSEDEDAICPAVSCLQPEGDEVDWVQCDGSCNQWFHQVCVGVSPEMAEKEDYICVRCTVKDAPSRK
# Assay: Primary screen for KDM5B Histone Demethylases FDH-coupled qHTS; note: nearly all actives have a fitted effect of over 70% in size
# Details: FDH-coupled NADH fluorescence (FDH is formaldehyde dehydrogenase); series mostly up to 57.7 µM
# Procedure, shortened: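 Inhibition is measured as reduced NADH fluorescence generation from FDH coupling to formaldehyde release. Truncated KDM5BΔAP at 200 nM final acts on H3K4me3 peptide (12.5 µM in substrate mix) in pH 7.5 HEPES buffer with Tween-20, 30 min, room temperature.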
# Potency is the fitted concentration of half-maximal effect; tags give direction and shape of the fitted curve.
row,SMILES,Potency
1,CCc1ccccc1-n1nnnc1-c1cnccc1C(F)(F)F,"inconclusive: 20 µM [inhibitor, partial curve, poor fit]"
2,Cc1ccc(NC(=O)Cn2c(N3CCCCC3)nc(C)c(C)c2=O)cc1C,"inconclusive: 15.8 µM [inhibitor, partial curve]"
3,CCN(CC(C)C#N)C(=O)C1CCCC1 (stereo not drawn),inactive
4,CCOc1cc2ccccc2cc1C(=O)Nc1nnc(C2CC2)s1,"inconclusive: 12.6 µM [inhibitor, partial curve, poor fit]"
5,CCn1c(Cn2ccnc2C)nnc1C1CCN(C(=O)C2(N)CC2)CC1,"inconclusive: 15.8 µM [inhibitor, single point]"
6,CCn1c(CN2CCN(c3ccccc3)CC2)nc2c1c(=O)n(C)c(=O)n2C,inactive
7,Cn1c(C(=O)NCc2cccc(Cl)c2)cc2oc3ccccc3c21,"inconclusive: 39.8 µM [inhibitor, partial curve, poor fit]"
8,Cc1noc(-c2ccco2)c1C(=O)N(C)Cc1ccccc1,"inconclusive: 31.6 µM [inhibitor, single point]"
9,CCc1noc(-c2ccn3c(CNC(=O)c4c(F)cccc4F)nnc3c2)n1,inactive
10,COc1ccc(C2CC(=O)C3=C(C2)Nc2ccccc2N(C(=O)CCC(=O)O)C3c2ccc(F)cc2)cc1OC (stereo not drawn),"inconclusive: 28.2 µM [inhibitor, single point]"
11,Cc1ccc(Cn2cc(-c3ccncc3)cc2C(=O)N(C)Cc2ccccc2)cc1,active: 22.4 µM
12,CCCCCn1nc(C(=O)N2CCSCC2)c2ccccc2c1=O,inactive
13,Cc1oc2cc(OCC(=O)NCc3cccs3)ccc2c(=O)c1Oc1ccc(F)cc1,"inconclusive: 25.1 µM [inhibitor, partial curve, poor fit]"
14,COc1ccc(-c2cc(C(=O)O)c3cc(C)ccc3n2)cc1OC,"inconclusive: 25.1 µM [inhibitor, single point]"
15,Cc1nn2c(=O)cc(COC(=O)c3ccc(NC(=O)COc4ccccc4F)cc3)nc2s1,"inconclusive: 31.6 µM [inhibitor, partial curve, poor fit]"
16,CCN(CC)CCCNC(=O)c1cc2c(-c3cccc(OC)c3)nn(C)c2s1,"inconclusive: 25.1 µM [inhibitor, partial curve, poor fit]"
17,O=C(CSc1nc(-c2cccs2)nc2ccccc12)N1CCCCC1,"inconclusive: 17.8 µM [inhibitor, partial curve, poor fit]"
18,COc1ccc(-c2cccc(CCOc3cnc4c(ccn4CC(=O)O)c3)c2)c(F)c1,"inconclusive: 35.5 µM [inhibitor, partial curve, poor fit]"
